Data reported in patent US5955421A, “Peptides containing D-2-alkyl-Tryptophan” (priority 1990, dated 1999).
“And” between values parts separate entries of the source, which are not always exact repeats. Equal values may be shown once. Not every detail of the peptide structures is certain; ends, links or a residue may be inferred. Square brackets hold non-standard residues; d marks the D form. Peptide text beside a SMILES is read from it. dTrp(2-Me) = Cc1[nH]c2ccccc2c1C[C@@H](N)C(=O)O; d2Nal = N[C@H](Cc1ccc2ccccc2c1)C(=O)O; GABA = NCCCC(=O)O

Test system: GH release
Test: Released GH in ten day-rats, s.c. (Table 9)
Assay type: in vivo
Details: 15 minutes
Experimental: In vivo activity of these compounds was determined in ten day-rats, which were subcutaneously injected (s.c.) with a dose of 300 μg/kg or with different doses in dose-response studies, according to the procedure as described in Deghenghi et. al, Life Sciences 54, 1321 (1994). The released GH was measured 15 minutes following compound administration.

[1] = 300 μg/kg s.c., GH control 10 to 31 ng/ml depending on experiment

| Structure (SMILES) | GH released [1] | GH released (5000 μg/kg s.c., GH control 69 ± 14) [ng/mL] |
| --- | --- | --- |
| Cc1[nH]c2ccccc2c1C[C@@H](NC(=O)CCCN)C(=O)N[C@H](Cc1c[nH]c2ccccc12)C(=O)N[C@@H](Cc1ccccc1)C(=O)N[C@@H](CCCCN)C(N)=O [Example 34, GAB-D-Mrp-D-Trp-Phe-Lys-NH2] (H-[GABA][dTrp(2-Me)][dW]FK-NH2) | 110 ng/mL and 172.8 ± 15.8 ng/mL | – |
| C[C@H](NC(=O)[C@@H](Cc1ccc2ccccc2c1)NC(=O)[C@@H](C)N)C(=O)N[C@@H](Cc1c[nH]c2ccccc12)C(=O)N[C@H](Cc1ccccc1)C(=O)N[C@@H](CCCCN)C(N)=O [GHRP-2, D-Ala-D-β-Nal-Ala-Trp-D-Phe-Lys-NH2, reference compound] (H-[dA][d2Nal]AW[dF]K-NH2) | 98.6 ng/mL and 154.4 ± 18.5 ng/mL | – |
| Cc1[nH]c2ccccc2c1C[C@@H](NC(=O)[C@@H](N)Cc1c[nH]cn1)C(=O)N[C@@H](C)C(=O)N[C@@H](Cc1c[nH]c2ccccc12)C(N)=O [His-D-Mrp--Ala--Trp--NH2, His-D-Mrp-Ala-Trp-NH2] (H-H[dTrp(2-Me)]AW-NH2) | – | 124 ± 37 |
| Cc1[nH]c2ccccc2c1C[C@@H](NC(=O)[C@@H](N)Cc1c[nH]cn1)C(=O)N[C@@H](C)C(=O)N[C@@H](Cc1c[nH]c2ccccc12)C(=O)N[C@H](Cc1ccccc1)C(=O)N[C@@H](CCCCN)C(=O)N[C@H](C(N)=O)[C@@H](C)O [His-D-Mrp--Ala--Trp-D-Phe--Lys--Thr--NH2, His-D-Mrp-Ala-Trp-D-Phe-Lys-Thr-NH2] (H-H[dTrp(2-Me)]AW[dF]KT-NH2) | 176 ± 20 ng/mL | – |
| Cc1[nH]c2ccccc2c1C[C@@H](NC(=O)[C@@H](N)Cc1c[nH]cn1)C(=O)N[C@@H](C)C(=O)N[C@@H](Cc1c[nH]c2ccccc12)C(=O)N[C@H](Cc1ccccc1)C(=O)N[C@@H](CCCCN)C(=O)N[C@@H](C(N)=O)[C@H](C)O [His-D-Mrp-Ala-Trp-D-Phe-Lys-D-Thr-NH2] (H-H[dTrp(2-Me)]AW[dF]K[dT]-NH2) | 169 ± 27 ng/mL | – |
